Laboratory results: PubChem BioAssay AID1347073 (National Center for Advancing Translational Sciences (NCATS), 2019)
Hit rate of the full screen: of about 45,000 compounds, about 200 (0.44%) were called active. Inconclusive results (about 7%) are left out. Calls follow the shape of the dose curve; as a rule, active = well fitted activation curve with a large enough effect; inconclusive = small, poorly fitted or top-dose-only effect; inactive = no such curve, though single readings can be large or run the other way. The list shows a part of the results.

assay: qHTS of TDP-43 Inhibitors: NCGC Sytravon Library Screen; conditions: yeast TDP-43 toxicity rescue, BacTiter-Glo growth, 24 h; series mostly up to 46.1 µM; growth rescue (activation): at the top concentration; also: 0% is about no effect; nearly all actives have a fitted effect of over 55% in size
Procedure, shortened: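 TDP-43-expressing yeast, pregrown in raffinose, seeded at OD600 0.02 in galactose medium with compound for 24 hr at 30 deg C. Growth read by BacTiter-Glo luminescence, so rescue of toxicity appears as activation.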

| SMILES | growth rescue (activation) |
| --- | --- |
| O=C(O)C1CCCN1c1nc(C(F)(F)F)nc2ccccc12 (stereo unspecified) | inactive: -0.315% |
| COc1ccc(OC)c(NC(=O)Cn2c(CCC(=O)O)ccc2-c2ccccc2)c1 | inactive: -6.35% |
| CC(=O)NCCC(=O)N(C)CC1CCN(CCc2cccc(C(F)(F)F)c2)CC1 | inactive: 7.1% |
| COc1ccc(OC)c(-c2csc(NC(=O)Cc3ccc(OC)c(OC)c3)n2)c1 | inactive: 30.2% |
| CC(C)CCN1C(=O)c2ccccc2CC1(C)C(=O)NC1CCCCC1 (stereo unspecified) | inactive: 8.38% |
| CCN(CC(=O)NC(=O)NCc1ccco1)Cc1nc2ccccc2c(=O)[nH]1 | inactive: 11.2% |
| O=C(CCCn1c(=O)[nH]c2ccsc2c1=O)NC1CCCCC1 | inactive: -14.1% |
| COc1cc2c(cc1OC)CN(C(=O)c1ccc(S(=O)(=O)N3CCCCC3)cc1)CC2 | inactive: 19.7% |
| Cc1cc(/C=C(/C#N)c2nc3ccccc3[nH]2)c(C)n1-c1cc(C(=O)O)cc(C(=O)O)c1 | inactive: 1.66% |
| COc1cc(/C=N/OCC(=O)NC23CC4CC(CC(C4)C2)C3)ccc1OCc1ccccc1 | inactive: 10.9% |
| Cc1ccnc(NC(c2cccnc2)c2ccc3cccnc3c2O)c1 (stereo unspecified) | inactive: 1.15% |
| Cc1cccc(/C=N/NC(=O)c2ccc(NC(=O)c3ccc(F)cc3)cc2)n1 | inactive: 17.5% |
| COc1ccccc1N1CCN(C2CCN(C(=O)c3ccc(F)cc3)CC2)CC1 | inactive: 5.77% |
| c1ccc(-c2nnc(-c3ccccn3)nc2NC2CCCCC2)cc1 | inactive: -64.5% |
| Cc1onc(C(=O)NCc2cccs2)c1[N+](=O)[O-] | inactive: 8.14% |
| O=C(NC1CC1)C1CCN(C2CCN(C(=O)/C=C/c3cccs3)CC2)CC1 | inactive: 2.53% |
| COc1ccc(/C=C/C=C2\N=C(SC)SC2=O)cc1 | inactive: 1.74% |
| C=CCn1c(=O)c2ccccc2n2c(SCC(C)=O)nnc12 | inactive: 7.4% |
| Cc1cc(C(=O)Nc2nnc(-c3ccccc3)s2)no1 | inactive: -12.8% |
| CCOc1ccc(C(C(=O)NCC2CCCO2)N(C(=O)c2snc(C(N)=O)c2N)c2cccc(F)c2)cc1 (stereo unspecified) | inactive: 4.32% |
| Cc1ccc2c(c1)C(C)(c1ccccc1)CC(C)(C)N2C(=O)c1ccc(F)cc1 (stereo unspecified) | inactive: -8.61% |
| Cc1ccc(N2C(=O)CC(Cc3cccc(C)c3)C2=O)cc1 (stereo unspecified) | inactive: 18.1% |

| SMILES | growth rescue (activation) |
| --- | --- |
| COc1ccc(NC(=O)C2CC(c3ccc(Cl)cc3)=NO2)cc1OC (stereo unspecified) | inactive: 7.89% |
| Cc1cc(NC(=O)c2ccc(N3C(=O)C4C5C=CC(C5)C4C3=O)cc2)no1 (stereo unspecified) | inactive: -9.83% |
| COc1cc(OC)cc(C(=O)N[C@H](C(=O)NCc2ccco2)C(C)C)c1 | inactive: 9.15% |
| COc1ccc(NC(=O)O/N=C/c2ccncc2)cc1 | inactive: -5.29% |
| CCOc1ccc(-n2cc(-c3ccc(OC)c(OC)c3)[nH]c2=S)cc1 | inactive: 24.3% |
| CCCOc1ccc(C(=O)NCCc2ccccc2)cc1 | inactive: 15.8% |
| Cc1ccc(-c2c3c(=O)n(C)c(=O)n(C)c3cn2N2CCOCC2)cc1 | inactive: 29.5% |
| O=C(c1nn(Cc2ccccc2)c(=O)c2ccccc12)N1CCN(C/C=C/c2ccccc2)CC1 | inactive: 5.89% |
| CSCCC(C)N1CCC(Oc2ccc(C(=O)N3CCCC3)cc2)CC1 (stereo unspecified) | inactive: -6.22% |
| CCCC1=Nc2cc(C(=O)NCCCOCC)ccc2Sc2ccccc21 | inactive: 21.5% |
| CC1CCCC(NC(=O)COC(=O)CSc2ccc3ccccc3c2)C1C (stereo unspecified) | inactive: -6.49% |
| CCn1cc(C(=O)O)c(=O)c2cc(F)c(N3CCN(C(=S)NC(=O)c4cccc(C)c4)CC3)cc21 | inactive: 28.7% |
| CN(C)CCCNS(=O)(=O)c1ccc(N2CCN(Cc3ccc4c(c3)OCO4)CC2)c([N+](=O)[O-])c1 | inactive: -11.3% |
| c1ccc(N2CCCCC2)c(Nc2nc3ccccc3n3cnnc23)c1 | inactive: 18.5% |
| CCCC(C)NC(=O)CSc1nc2ccc(C)cc2[nH]1 (stereo unspecified) | inactive: -18.2% |
| O=C(CC12CC3CC(C1)CC(CC(=O)NC1=NCCS1)(C3)C2)NC1=NCCS1 | inactive: 10.1% |
| CN(C)C(CNC(=O)C1CCN(C(=O)/C=C/c2ccccc2)CC1)c1ccccc1 (stereo unspecified) | inactive: -6.21% |
| COc1ccc(C(O)c2ncc(-c3ccccc3OC)[nH]2)cc1F (stereo unspecified) | inactive: 5.72% |
| COc1ccc(C(=O)NC(C)c2ccccc2)cc1Br (stereo unspecified) | inactive: 5.42% |
| Cc1ccc(-c2csc(NC(=O)c3ccc4c(=O)n5c(nc4c3)CCCCC5)n2)cc1 | inactive: -1.79% |
| CCC(CC)c1nnc(NC(=O)CN2C(=O)C3C4C=CC(C4)C3C2=O)s1 (stereo unspecified) | inactive: -12.2% |
| COc1ccc(Nc2ccc(S(=O)(=O)N3CCCCC3)cc2[N+](=O)[O-])cc1OC | inactive: 22.5% |

| SMILES | growth rescue (activation) |
| --- | --- |
| COc1ccc(CSCCc2n[nH]c(=S)n2-c2ccccc2)cc1C | inactive: 16.6% |
| CN(C)S(=O)(=O)c1cccc(C(=O)N=C2N=C3C=CC(Cl)=CN3Cc3ccccc32)c1 | inactive: 17.8% |
| CC(C)(C)OC(=O)N/N=C\c1ccc[nH]1 | inactive: 4.9% |
| O=C1CCc2cc(S(=O)(=O)NCCCC(=O)N3CCN(Cc4ccc5c(c4)OCO5)CC3)ccc2N1 | inactive: 0.423% |
| O=C(C(c1ccccc1)c1ccccc1)N1CCN(CCN2C(=O)c3cccc4cccc(c34)C2=O)CC1 | inactive: -5.28% |
| Cc1nc2ccccc2nc1CN1CCN(Cc2ccc(F)c(F)c2)C(CCO)C1 (stereo unspecified) | inactive: -7.19% |
| CCCCOc1cc(C)nc(NCc2ccccc2)n1 | inactive: 5.02% |
| COc1ccc(C2C(C#N)=C(N)Oc3cc(C)n(Cc4ccncc4)c(=O)c32)cc1 (stereo unspecified) | inactive: 23.8% |
| CCCS(=O)(=O)N1CCC(C(=O)NCCN2CCCC2)CC1 | inactive: -0.7% |
| CC(=O)Nc1ccc(SCC(=O)NC(=O)c2ccc(S(=O)(=O)N(C)C)cc2)cc1 | inactive: 24.2% |
| CC(O)(c1ccccc1)c1nc(-c2ccc(Cl)cc2)cs1 (stereo unspecified) | inactive: -25.8% |
| COc1ccc(NC(=O)C2CCCN(S(=O)(=O)c3c(C)[nH]c(=O)[nH]c3=O)C2)cc1Cl (stereo unspecified) | inactive: 0.449% |
| CCN(CC)S(=O)(=O)c1ccc(S(=O)(=O)NCc2cccs2)cc1 | inactive: -17.7% |
| O=C(Nc1ccc(NC(=O)c2ccccc2F)cn1)c1ccco1 | inactive: -3.53% |
| COc1cc([N+](=O)[O-])ccc1-c1ccc(/C=N/NC(=O)OC(C)(C)C)o1 | inactive: 9.36% |
| Cc1nc2nc(C)c(CCC(=O)NC3CCCCC3)c(C)n2n1 | inactive: 14.2% |
| CCC(Sc1nc2ncccc2o1)C(=O)Nc1cccc(C)c1 (stereo unspecified) | inactive: 9.26% |
| CC(=O)Nc1cccc(-c2ccnc3c2CC(C)(C(=O)Nc2cccnc2)O3)c1 (stereo unspecified) | inactive: -5.72% |
| O=C(NCc1ccco1)c1ccc(-c2ccc3nccn3c2)cc1 | inactive: -0.73% |
| CC1(C)c2[nH]c3ccccc3c2C[C@H]2C(=O)N(N)CC(=O)N21 | inactive: 9.33% |
| CCC(C)C(NS(=O)(=O)c1ccc(C)cc1)C(=O)N1CCOCCOCCOCC1 (stereo unspecified) | inactive: 5.61% |
| O=C(NCCc1ccc2c(c1)OCCO2)c1ccc([N+](=O)[O-])cc1Cl | inactive: 21.5% |
